44 sequences from the supplement of paper PMC11417369 can be followed below.

± gives the standard deviation of the averaged measurements. The list shows a part of the results.

The assay concerns PfAP2-LT AP2 domain (GST-tagged). Briefly: gcPBM binding intensity (ln(normalized median fluorescence intensity)); higher = stronger DNA binding. The gist of the method:
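DNA-binding domains from P. falciparum, fused to GST and produced in E. coli, were put on an Agilent 4 × 180k double-stranded probe array for 1 h in 1× PBS holding 1% milk, 0.2 mg/ml BSA, 0.5% salmon testes DNA and 0.03% Triton X-100. Probes were primer-extended, 36 bp long and drawn from intergenic genomic regions, with negative controls included. After Alexa488 anti-GST antibody detection and a 488 nm scan, binding intensity was set as the highest Masliner-normalised natural-log median intensity across replicate spots of either probe orientation.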
For “TCCTTCGAAACTAAAATTCATTTAAAATATTGATAT [CACACA_negctrl_site369]”, the “gcPBM binding intensity (ln)” value worked out at 8.21 ± 0.42. “TAGGTCCTCATTTTATGTACATAAAGAAATATGATT [XGTACX_site4138]”: the “gcPBM binding intensity (ln)” value stood at 8.59 ± 0.34.

Consider “TACATACATACATACACACACACATATATATATATA [CACACA_site42]”, for which the “gcPBM binding intensity (ln)” value worked out at 10 ± 0.27.

With “AAAAAAAATATATAAACACACATATTTATATACGCA [CACACA_site1631]”, the “gcPBM binding intensity (ln)” value came to 8.88 ± 0.38. Regarding “ATATAAACATTTAGTAATCCATATAGGTACTACTGA [CACACA_negctrl_site1249]”, the “gcPBM binding intensity (ln)” value came to 8.61 ± 0.35.

As for “TATTTATAGATATATACACACATATACATATTGTTT [CACACA_site7611]”, the “gcPBM binding intensity (ln)” value amounted to 9.12 ± 0.44. The same measure for “ATATATGCTAATATATGTACTGATTATATCTCTTCA [XGTACX_site7156]”: 8.79 ± 0.49; for “ATATTATATTATTAATGTACATATATATAATTTTAA [XGTACX_site4974]”: 8.46 ± 0.4; for “AAGGCAAACAAACACACACACATATATACCTATATA [CACACA_site5203]”: 9.84 ± 0.32. Under “TCTTATCCATATATTACACACTATATATAGAAATTA [CACACA_site291]” stands 8.66 ± 0.39. The same measure for “AGAAATGAAATCCAAAAACGAGGAACCAATAACGCA [CACACA_negctrl_site1758]”: 9.14 ± 0.46.

For the sequence “TATACACGCGGACACACACACACACGCAAAAAAAAA [CACACA_site6377]”, the “gcPBM binding intensity (ln)” value was found to be 10 ± 0.23. Consider “TAAAAACCAAAGAAAAGTACAAATTTAAATGAGAAA [XGTACX_site7450]”, for which the “gcPBM binding intensity (ln)” value was 8.84 ± 0.61.

As to “ATAAGCCATTTTTGTGGTACATAAAATAGATATATA [XGTACX_site5175]”, the “gcPBM binding intensity (ln)” value came to 8.61 ± 0.52.

Consider “TTTACACCGTAATATGCATGTGTGTATATATTTTTG [TGCATGCA_site186]”, for which the “gcPBM binding intensity (ln)” value was found to be 9.05 ± 0.32. On to “ATATATATTTAAAGATGTACATAATGAAATGGTTAT [XGTACX_site4706]”, for which the “gcPBM binding intensity (ln)” value was found to be 9.01 ± 0.47. Under “ATATATATATATGTATGTACATATTTTTTTTAACAC [XGTACX_site8475]” stands 9.39 ± 0.042. The same measure for “GCAGTATTTCGGAACACACAAACATAAATATGTATT [CACACA_site2316]”: 9.01 ± 0.38; for “GCACAATTTACACTTAAACACACAAAAAAAAATTAT [CACACA_site8642]”: 9.01 ± 0.41. Under “AAATTTATTTATTATAGTACACTTAATACTACCCAA [XGTACX_site41]” stands 8.49 ± 0.48; under “AGCACAGACGGACACACACACACACCCACAGACACA [CACACA_site4358]”, 10.1 ± 0.23; under “CATCTTAGTTTGAGTTGTACAATATTTATAAAAATA [XGTACX_site693]”, 8.44 ± 0.48. As for “ACAAGTTTAACATTTCGTACTTATTGTGTTTTTTTT [XGTACX_site5487]”, the “gcPBM binding intensity (ln)” value is 8.97 ± 0.54. Take “CTTTTAATATTAAGATGTACTTAGAATTTTTTTTTT [XGTACX_site8338]”: the “gcPBM binding intensity (ln)” value stood at 8.18 ± 0.53. TTTTTTGTTATTGGCGTGCACATATCCATTTATAGT: the “gcPBM binding intensity (ln)” value was 8.99 ± 0.42. In the case of “CATATATATTTATGTACACACATTAATAAAAAAAAA [CACACA_site5741]”, the “gcPBM binding intensity (ln)” value was determined as 8.84 ± 0.52.

As to “ATATATATAAATAATTGTACTTAAAAAAAAAAAAGG [XGTACX_site6847]”, the “gcPBM binding intensity (ln)” value was 8.48 ± 0.55. Turning to “TGTAGAGCGCAAAGTAGTACTACAAATTATGGAGGG [XGTACX_site3022]”, the “gcPBM binding intensity (ln)” value came to 9.28 ± 0.31. For the sequence “AACAGCATATCACATTTCTTCAAAAAAAAATAAAAT [CACACA_negctrl_site733]”, the “gcPBM binding intensity (ln)” value was 8.69 ± 0.45. The same measure for “TTAAAACATAAAAAAAGTACATACAAATATATATAA [XGTACX_site789]”: 8.78 ± 0.54. Under “TTCAAAACTTAAAATCGTACAAGACAATTATTATAT [XGTACX_site6626]” stands 8.63 ± 0.42; under “AATTATATTACGAAATGTACATATAATAATGTATAT [XGTACX_site4410]”, 8.75 ± 0.34. For “TACAAAATAACTAGCACACATATGTATAAACATATA [CACACA_site5948]”, the “gcPBM binding intensity (ln)” value was determined as 9.03 ± 0.5. The same measure for “TATGTCAATCAAGCAAGTACATATATATATAAATAT [XGTACX_site7554]”: 8.9 ± 0.44; for “TTAAATGGAAAAATATGTACATATATATATATATTT [XGTACX_site2286]”: 8.84 ± 0.35.

Turning to “ATATTAAATTCAATTTAATGTTTTGTGAATTTTAGA [CACACA_negctrl_site1421]”, the “gcPBM binding intensity (ln)” value was determined as 8.29 ± 0.4.

Regarding “TGAACTCATAGATTTAGTACATATATAAAAAAATTC [XGTACX_site1692]”, the “gcPBM binding intensity (ln)” value was found to be 8.52 ± 0.44. As to “GATTAATTTAAAAAATGTACATTTTATTGTATAACC [XGTACX_site5539]”, the “gcPBM binding intensity (ln)” value was determined as 8.62 ± 0.45. As for “TAAACACCCATATAAACACACATACATACATACATA [CACACA_site5383]”, the “gcPBM binding intensity (ln)” value worked out at 9.53 ± 0.4. Under “CCAAGAAACCAAAAAAGTACATACATGGTTATAATT [XGTACX_site4249]” stands 8.96 ± 0.55; under “ACAATATGTATATATATATATATGCAAATGTATAAA [CACACA_negctrl_site53]”, 9.03 ± 0.38; under “CCATATATAATGACATGTACTCAAAAAAAAAAAAAA [XGTACX_site685]”, 8.61 ± 0.47.

As to “TTTCTCTTTTTTTGGGGTACAACCAATCCTATAATA [XGTACX_site297]”, the “gcPBM binding intensity (ln)” value came out at 8.5 ± 0.49. For the sequence “ATACATATATATATATGTACATATATTTATATTTAT [XGTACX_site3155]”, the “gcPBM binding intensity (ln)” value worked out at 8.83 ± 0.41.
